Laboratory results: the supplement of paper PMC3334620
Over roughly 33,000 sequences, “E-score (-0.5 to 0.5)” has its median near -0.012; the highest 2% begin near 0.27. This is one part of the list.

target: T1, Vhr1 (UniProt P40522); assay: PBM E-score (8-mer binding enrichment) (E-score (-0.5 to 0.5)); higher = stronger / more preferred TF binding; most listed sequences are background and not binding sites; conditions: protein concentration: 200 nM; construct: GST-full length
T1 sequence: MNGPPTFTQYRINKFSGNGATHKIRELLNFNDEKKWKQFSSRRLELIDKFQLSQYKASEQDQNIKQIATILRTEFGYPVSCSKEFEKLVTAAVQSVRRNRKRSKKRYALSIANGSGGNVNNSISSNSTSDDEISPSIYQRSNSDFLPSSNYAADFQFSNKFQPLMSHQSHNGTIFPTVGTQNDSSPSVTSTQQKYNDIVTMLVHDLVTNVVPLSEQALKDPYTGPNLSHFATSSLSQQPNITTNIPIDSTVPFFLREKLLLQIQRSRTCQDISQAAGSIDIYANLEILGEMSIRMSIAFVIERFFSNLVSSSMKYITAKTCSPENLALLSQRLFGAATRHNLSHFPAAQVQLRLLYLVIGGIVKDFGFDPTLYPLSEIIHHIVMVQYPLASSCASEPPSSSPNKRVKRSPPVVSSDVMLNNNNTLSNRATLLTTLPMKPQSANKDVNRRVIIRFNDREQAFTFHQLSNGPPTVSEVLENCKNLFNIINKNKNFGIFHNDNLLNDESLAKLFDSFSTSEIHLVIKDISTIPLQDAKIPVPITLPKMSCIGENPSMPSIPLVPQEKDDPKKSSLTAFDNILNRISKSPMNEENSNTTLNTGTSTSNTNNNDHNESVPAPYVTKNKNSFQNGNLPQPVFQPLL
Method in brief: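 Full-length yeast transcription factors or their DNA-binding domains, GST-tagged and expressed with PURExpress, were applied at about 100-200 nM to universal all-10-mer Agilent arrays. These arrays had been made double-stranded by primer extension on fresh or once-stripped slides. Detection used fluorescent anti-GST, normalisation used masliner, and E-scores for ungapped eight-base words pooled with reverse complements came from the Universal PBM Analysis Suite.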

Row | Sequence | PBM E-score
1 | AGGGCAGG | -0.0947
2 | CGGGAGGA | -0.0156
3 | CAGGACAG | -0.0633
4 | ATCAAATC | 0.0983
5 | CCGATTAC | -0.0714
6 | AATTGAGA | -0.0698
7 | GAGGCCAA | -0.0163
8 | GGGCACCC | -0.0478
9 | ACCAGTAT | 0.0277
10 | TACCACTA | -0.093
11 | AAGAAACA | -0.161
12 | AACGGGGT | -0.0274
13 | GTAAAGAC | -0.133
14 | CACTGAGC | 0.0243
15 | GTGAGAAC | -0.113
16 | ATTAATTC | 0.0827
17 | AGGGATCA | 0.0551
18 | AGCAACCC | -0.112
19 | CCCTCAAA | -0.212
20 | TAGCCGCA | 0.00034
21 | GTCATGGA | 0.136
22 | CGGAAACC | -0.124
23 | ACAAATGC | -0.0549
24 | AGAAAACA | -0.196
25 | AAAGGACA | -0.0488

Row | Sequence | PBM E-score
26 | CTCCAATA | -0.0124
27 | CAATTAGG | -0.011
28 | ACAAAGGA | -0.00459
29 | ATCGGCCG | 0.0135
30 | CACCTATA | -0.00283
31 | AGACGTCG | -0.0466
32 | GACGGTAA | -0.279
33 | GCCCTGAC | 0.0126
34 | TACACTGA | 0.26
35 | GAAGCGAA | -0.176
36 | ATGATTAA | 0.264
37 | TCACACGA | 0.201
38 | ACAGACTG | 0.0688
39 | ACATTCGT | -0.0276
40 | AGTATCGG | -0.101
41 | ACCTGCGC | -0.077
42 | AGGGACGC | -0.144
43 | AGGCATCG | -0.22
44 | AACGAGAT | -0.00314
45 | AGGCCCTC | -0.112
46 | CCAAGTAC | -0.133
47 | AGAACGTC | -0.0281
48 | GATTCTCA | 0.078
49 | CAGCCTTC | -0.126
50 | GTACTGGA | 0.166

Row | Sequence | PBM E-score
51 | ACGTTGGA | 0.0766
52 | AGTCCCGC | -0.0151
53 | GAACGTAA | -0.117
54 | CCCTAACA | -0.0438
55 | AAGCTGTC | -0.135
56 | GAGTCTGC | -0.0315
57 | CATCGTTA | -0.045
58 | GACCTCAC | 0.0743
59 | TCCCAGCA | 0.0646
60 | CATTGTGG | 0.209
61 | ATTCATTA | 0.195
62 | CGGTATAA | -0.113
63 | AACAGATT | -0.157
64 | CGGGTTTC | -0.0806
65 | AAGCCGTG | -0.169
66 | AGGCCTAC | 0.0465
67 | ATATCCTG | 0.0294
68 | CGGTTAAC | -0.00424
69 | GGCTTACC | -0.116
70 | AAAACACT | -0.0304
71 | CTTCACTC | 0.101
72 | CGTTAAGC | -0.00068
73 | AAAACGCC | -0.0219
74 | GAGGGCCA | -0.0438
75 | CTGTTGCA | 0.121

Row | Sequence | PBM E-score
76 | AGACTGGC | -0.213
77 | GCTATCTA | -0.0425
78 | ACCTCTTC | 0.0109
79 | AAAGTTTA | -0.176
80 | TAATTACA | -0.0388
81 | CGGGCGCA | 0.0279
82 | GATGAAAC | -0.0135
83 | CAGAAACG | 0.00094
84 | GCGTCACC | -0.234
85 | CTGAAATA | 0.00206
86 | AACCTTCC | -0.211
87 | ATCGAAAA | -0.11
88 | ATCCAAAA | -0.132
89 | GCTTCAGA | -0.132
90 | CCATAAGA | -0.0689
91 | CTCATGAG | 0.0895
92 | GAACTAGC | -0.118
93 | AAGGCCTG | -0.249
94 | AGCGGGGC | -0.123
95 | AGCGAATG | -0.0751
96 | ACCATACG | 0.0923
97 | GGTTTACA | -0.0121
98 | AAACATGC | 0.0612
99 | AGTAACGC | 0.00153
100 | ATTAGCTG | 0.0563

Row | Sequence | PBM E-score
101 | AATCGGGT | 0.119
102 | ACAACACC | 0.0441
103 | CTTAAAAC | -0.173
104 | CATTAAAG | -0.125
105 | CGCCGGCG | 0.237
106 | CGCTAGAC | -0.253
107 | ACATAGGC | -0.122
108 | CCGATGTA | 0.0807
109 | CTTCTACC | -0.103
110 | ATAGCCAC | 0.113
111 | TATAGAAA | -0.163
112 | AAAGTACC | -0.136
113 | AGACCGTC | -0.136
114 | CCTCCGCG | 0.065
115 | GTTCGCAA | 0.00099
116 | AATATCAG | -0.0255
117 | ACTATAGT | 0.173
118 | CTGCGGGC | 0.0044
119 | CTGCGGCC | 0.00322
120 | GAAGTACC | -0.13
121 | GTCTCGCA | -0.00955
122 | GGCCCCCC | -0.143
123 | GAAATAGA | -0.00777
124 | CAGTCGTA | 0.132
125 | AAATTTCG | -0.24

Row | Sequence | PBM E-score
126 | AGCAGCCT | -0.0896
127 | CCGTAAAA | -0.0726
128 | GGGTAAAA | -0.0529
129 | GACGGAAA | 0.0178
130 | CTTGCCCA | -0.177
131 | AGTCAGTG | 0.375
132 | AGGAAACC | -0.148
133 | ACACGGGG | 0.162
134 | CACCAACG | 0.116
135 | AAAGCTAC | -0.113
136 | CTCCTCTA | -0.189
137 | TCGTCTCA | -0.129
138 | GCATTCGA | 0.0505
139 | CCCCCGCG | 0.0616
140 | CAGCAAAA | 0.0669
141 | CTCTTACC | -0.0367
142 | AACGTTTC | -0.246
143 | CAGTAAAG | -0.0186
144 | GGACGACA | 0.203
145 | CGCAGAAA | -0.268
146 | GGTAGTGA | 0.159
147 | AATGAGAG | -0.17
148 | AACACTGT | 0.0656
149 | ATTGGCCC | -0.193
150 | CCGCGGAC | 0.121

Row | Sequence | PBM E-score
151 | AACTTAAA | -0.221
152 | ATACTACA | 0.258
153 | CACCAGCG | 0.163
154 | GTGGATTA | -0.0316
155 | AGCAGGAC | 0.119
156 | CACTCAGA | 0.12
157 | AAACTGAG | -0.123
158 | AACGATCA | -0.0499
159 | CAGTTAGC | -0.178
160 | GTGGCCGA | -0.124
161 | AAACTCGT | -0.0145
162 | CCCTTCAA | -0.206
163 | ACTCGAGC | 0.0233
164 | TAGGAGAA | -0.139
165 | AAATCGGT | -0.194
166 | AGTATTTC | 0.0255
167 | GATTCTCC | 0.142
168 | TATGTGGA | 0.123
169 | ATGACCGG | -0.132
170 | CCCCTGAC | 0.192
171 | CAGTGGTA | -0.0246
172 | CCCCGAAC | -0.0793
